In paper PMC12136788 one finds binding signal data, which are given here for 14 molecules.

B1: chr5:92956547:92956548:-_ENSG00000113391_ENST00000395965|hu_mus|motif|central (ssRNA)
RNA: GGGAGUUCUACAGUCCGACGAUCCCGCUGAAGCCAUAUUGCUUUGACAGUUGCACUCAUCUAGAAAUAAUGCAAAACGCGGUUUAGACGGACACAUCACGACCCUGCGCUGGAGAAAGAAAGCAAUCUAAUGGGGGCCAGGAGCAACAGAGGAUUGAGCAUCA
B2: chr1:29069439:29069440:+_ENSG00000198492_ENST00000541996|hu_hu|FALSE|FALSE (ssRNA)
RNA: GGGAGUUCUACAGUCCGACGAUCUGCUGGUUUUGGAGGAGCAAUGGUGGCUGGAGGCAAACUAUUGGAAGCCACGAUGUUACUAGUAAUGGACCCGCUACCAACAGCAGAACCUACAACUUUUGGAACAUUGCUUGCAACUUCCAACAGAGGAUUGAGCAUCA
B3: 44929261_44929381_2462_CDS_ENSG00000147050_ENST00000377967|human|control|control (ssRNA)
RNA: GGGAGUUCUACAGUCCGACGAUCUGUUGCUGUUGAAAUGGCUGAAGAUGGUGAAGAGGCAACAGAGUUAUCAGUCUUUGUAUGAACAGCUGGGUGGAUGUUAUUGACUUUGUCACAGGUUCCAGUACCCACAUUGUUAUUGGCCAACAGAGGAUUGAGCAUCA
B4: chr9:91931296:91931297:+_ENSG00000123975_ENST00000314355|hu_hu|hu_hu_hu_mus_True|78_108 (ssRNA)
RNA: GGGAGUUCUACAGUCCGACGAUCAGAUUGACGAUCCCCAGCUGCACUUCAUUUUUGUUGAUCUUUUGGAAGAGGUCGUCUAAAGAGAAGAAUAUGCGGUUCUGGCUCAUGAAUCAUGUAAUGAACCCAUCCUAGACUCUGUUGCAACAGAGGAUUGAGCAUCA
B5: chr5:40767622:40767623:-_ENSG00000132356_ENST00000397128|hu_hu|FALSE|FALSE (ssRNA)
RNA: GGGAGUUCUACAGUCCGACGAUCAUCUUUGAUUGUGGCCCUCUUCAUGGGAUCCACCUGCAGCAUAUGUUUCAAAAGGCUAAUCACAGAAGGAUUUAAAUAUUGAGGGGUAUAGAAGAUCCCAUCACAUAUCUUCUUAAAAAGCAACAGAGGAUUGAGCAUCA
B6: chr11:23509083:23509084:-_ENSMUSG00000042208_ENSMUST00000043356|mus_mus|FALSE|FALSE (ssRNA)
RNA: GGGAGUUCUACAGUCCGACGAUCUGUGCCCCACAAACGCCAAUAAACAUCUCUCCAAGAUUUUAAUUCUUCAAAAAGACUAUUCAAAUAUUCAUGUACAUCCCAGGUUUUAUCUCUUAUGUGGAUGUAGAUAAUAUUUCCAUGCAACAGAGGAUUGAGCAUCA
B7: chr15:76463590:76463591:-_ENSMUSG00000059323_ENSMUST00000168185|mus_mus|FALSE|FALSE (ssRNA)
RNA: GGGAGUUCUACAGUCCGACGAUCACGGCUCUGGGCACUACCCACGCCUCGGAUGGCCGCUUGGUAAGCCGCCCGGCAAGCACUUGACGUGGCUGUCUCUCUACUUUUGGGUGGGUCAGGAAUCUUGACUUCACCCUGCUGUGUCAACAGAGGAUUGAGCAUCA
B8: chr3:176767854:176767855:-_ENSG00000177565_ENST00000430069|hu_hu|hu_hu_hu_mus_False|68_98 (ssRNA)
RNA: GGGAGUUCUACAGUCCGACGAUCGACAUCCUUGUUACUUGGAACAUCCUGCCCUCCUUCCCGUAUGCAAUGUCUAAGCACGAGCUGCGUAGGGCCACUCGUGCUGUUCUCACUGAGGUUCCAGAUUCUUGCCGUGGAGUCUCCCAACAGAGGAUUGAGCAUCA
B9: 74150939_74152420_1786_CDS_ENSG00000077809_ENST00000416070|human|control|control (ssRNA)
RNA: GGGAGUUCUACAGUCCGACGAUCAACUUCAGUGGUACUGUGAGUCAGAAGUUCUGGUCUUUUAAUAACAAAUUUAAUUCGAUUGCCCACUUGAAUGAUUUUUUCCAGCCUUGGGAUUCCAUACCAUGAGGGACUUCGGAAAGGCAACAGAGGAUUGAGCAUCA
B10: chr2:168009416:168009417:-_ENSMUSG00000051149_ENSMUST00000088001|perfect_dup|motif|central (ssRNA)
RNA: GGGAGUUCUACAGUCCGACGAUCCAUAUGGUUGAGCAGAGUAUCUGUGGGUAAAUAGCGAUUACAGUAGAGGCAUUUGCGGGUAAAAUUGUGUAUUUUCAUAAUGUAGUUGGCUACUGCUGGGACUUUCUCAGCUUUAUGUUCCAACAGAGGAUUGAGCAUCA
B11: chr17:64801638:64801639:+_ENSG00000154229_ENST00000413366|hu_mus|hu_hu_hu_mus_False|18_98 (ssRNA)
RNA: GGGAGUUCUACAGUCCGACGAUCUAUAUAUAUAUAUAUAUACACACACAUAUAUAGUAAAACCCUAGUUAAACGUGUAAAGUAGCCAUUCAUUUUUAAAAUUACAUCUACAUUAAAAAAGUAAUCUAUCUGAUAGAGUGCCAGCAACAGAGGAUUGAGCAUCA
B12: chr2:210598762:210598763:+_ENSG00000078018_ENST00000392194|hu_mus|motif|central (ssRNA)
RNA: GGGAGUUCUACAGUCCGACGAUCGCAAAACAAUCACUAUACAGCAACAAAUACAUUUGCAAAUUGAUUGAAAAACAUGAACGGACGGCAACCAGCCAUUGAAGAAAUACCUUUCUAUGGUAACAGGCUCUAGAAUUAUCAGAACAACAGAGGAUUGAGCAUCA
B13: 10357289_10363325_2175_CDS_ENSG00000054523_ENST00000377093|human|control|control (ssRNA)
RNA: GGGAGUUCUACAGUCCGACGAUCUUGCAACUUGCUGGGAGGUAGCUUUUCUCUCAGAGAAGUAAUCAGUUUCCAGCUCUCUUCACACGACCUCUUGUCAGAAUCGUCCCCGCUAUCAGAAUCCGCGUCCAGUCUCUGCUGCUCCAACAGAGGAUUGAGCAUCA
B14: 10098463_10102494_2252_CDS_ENSMUSG00000056763_ENSMUST00000071087|mouse|control|control (ssRNA)
RNA: GGGAGUUCUACAGUCCGACGAUCUCUUUGUCUCUUUUCCUCAAUCUGAAAACGAAGAAAAUUCUUGUAUAAUUCUUGCUGUUUAAUCUGAAGCUCGCUGAGUGGCUCACCAAAUGUGUUUCCCCGGGCAAAAGGAGAGCUUUGCAACAGAGGAUUGAGCAUCA

Some of the results follow.

The assay concerns the target T1, UNK ZnF1-3 (human, UniProt Q9C0B0 31-174).
T1 sequence: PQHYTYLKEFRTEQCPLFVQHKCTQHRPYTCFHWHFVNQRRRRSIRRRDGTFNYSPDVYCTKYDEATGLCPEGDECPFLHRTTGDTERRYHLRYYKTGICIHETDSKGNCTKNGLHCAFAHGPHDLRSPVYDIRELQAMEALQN
Description: nsRBNS (natural sequence RNA bind-n-seq); RBNS binding buffer (assumed for nsRBNS): 25 mM Tris pH 7.5, 150 mM KCl, 3 mM MgCl2, 0.01% Triton X-100, 500 ug/ml BSA, 20 U/ml SUPERase-In, 4 C; UNK is unkempt and MSI1 is Musashi-1; names of the RNAs are library labels; protein concentration not given here; high values mean tight binding.
The molecule B1 came in with a binding signal of 1.35 enrichment R.

For the molecule B2, the binding signal stood at 1.12 enrichment R.

B3 gave a binding signal of 1.56 enrichment R.

For B4, the binding signal stood at 0.901 enrichment R.

Consider B5, for which the binding signal amounted to 1.46 enrichment R.

Regarding B6, the binding signal amounted to 0.932 enrichment R.

The molecule B7 registered a binding signal of 0.584 enrichment R.

B8 showed a binding signal of 0.676 enrichment R.

For B9, the binding signal was 1.15 enrichment R.

B10 had a binding signal of 2.18 enrichment R.

Molecule B11 registered a binding signal of 1.95 enrichment R.

On to B12, for which the binding signal was found to be 1.64 enrichment R.

For the molecule B13, the binding signal was 0.843 enrichment R.

For the molecule B14, the binding signal is 1.06 enrichment R.
